# Test results: PubChem BioAssay AID624418 (National Center for Advancing Translational Sciences (NCATS), 2012)
# The whole screen tested about 410,000 compounds, of which about 530 (0.13%) were called active. Inconclusive means that the source gave no clear call. Such entries were picked first, then a sample of the others. Calls follow the shape of the dose curve; as a rule, active = well fitted inhibition curve with a large enough effect; inconclusive = small, poorly fitted or top-dose-only effect, or another doubt; inactive = no such curve, though single readings can be large or run the other way. Where the call is inconclusive, the potency comes from a doubtful curve fit.
# Experiment: qHTS of GLP-1 Receptor Inverse Agonists: Cytotox Screen
# Conditions: HEK293 cAMP-luciferase reporter cells, luminescence, 24 h; activity change, negative = inhibition: at 38.3 µM (top of the series) unless noted
# Summary of the method: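 Luminescence readout: signal drop marks cytotoxicity. Plated cells grew 12 h at 37 °C, 5% CO2, received 23 nL compound for 24 h, then got luciferase reagent, read after 12 min at RT.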
# % is scaled to controls: 0 for no effect and ±100 for the full control effect; potency is read from the fitted curve at half-maximal effect.
SMILES,Potency,"activity change, negative = inhibition"
COc1ccc(Cl)cc1NC(=S)NC1CCCC1,"inconclusive: 28.2 µM [inhibitor, single point]",
C[C@H]1CCC(=O)N([C@H](CSc2ccc(Br)cc2)Cc2ccccc2)CC1,"inconclusive: 2.51 µM [inhibitor, full curve, poor fit]",
Cc1ccsc1/C=N/NC(=O)Cn1nc(C)c([N+](=O)[O-])c1C,,inactive: 1.55%
Cc1oc(-c2cccc(Cl)c2)nc1CN1CCC(C(=O)N2CCN(c3ccccc3F)CC2)CC1,"inconclusive: 11.2 µM [inhibitor, single point]",
Cc1ccc(C(=O)Nc2ccccc2Sc2ccccc2)cc1,,inactive: 4.3%
CCOc1ccc(CNC(=O)Cn2ccc3cc(S(=O)(=O)N4CCCC4)ccc32)cc1,,inactive: -10.5%
COc1cccc(Nc2nc(C(N)Cc3ccccc3)cs2)n1 (stereo not given),"inconclusive: 28.2 µM [inhibitor, single point]",
O=C(Nc1ccc(N2CCN(c3ccc(O)cc3)CC2)cc1)Oc1ccccc1,"inconclusive: 15.8 µM [inhibitor, single point]",
CCOC(=O)N1CCC(Nc2c(NCCCN3CCN(C4CCCCC4)CC3)c(=O)c2=O)CC1,"inconclusive: 1 µM [inhibitor, full curve]",
CCOC(=O)c1ccc(NC(=S)N2CCCC2c2ccc(OC)c(OC)c2)cc1 (stereo not given),,inactive: 6.37%
COCCNC(=S)N(CCc1c(C)[nH]c2ccc(F)cc12)Cc1cccs1,,inactive: -24.6%
CC1C(c2ccccc2)N(C)C(c2ccccc2)C(C)C1(O)C#Cc1ccccc1 (stereo not given),"inconclusive: 28.2 µM [inhibitor, single point]",
CC(Cc1cccs1)NC(=S)Nc1ccc(Cl)c(Cl)c1 (stereo not given),"inconclusive: 12.6 µM [inhibitor, partial curve, poor fit]",
COc1ccccc1Cc1c(-c2ccco2)nc2c(C)cc(Br)cn12,"inconclusive: 22.4 µM [inhibitor, single point]",
Cc1cccc(NC(=S)NCCc2ccc(Cl)cc2)c1C,"inconclusive: 3.98 µM [inhibitor, full curve, poor fit]",
CN1CCc2c(sc(NC(=O)c3ccc([N+](=O)[O-])o3)c2C(N)=O)C1,"inconclusive: 12.6 µM [inhibitor, single point]",
Cc1onc(-c2ccccc2)c1C(=O)N1CCN(C(=O)c2ccco2)CC1,,inactive: 3.51%
CC(C)c1ccc(-c2noc(SCC(=O)N3CCCCC3C)n2)cc1 (stereo not given),,inactive: -1.71%
CCCC/C=C1\CCc2c([nH]c3ccccc23)C1=O,,inactive: -6.38%
CCCC1=C(C(=O)OCC)C(/C=C/c2ccccc2)n2ncnc2N1 (stereo not given),"inconclusive: 2.82 µM [inhibitor, partial curve, poor fit]",
CCCCC1(Br)C(=O)N(c2ccccc2)N(c2ccccc2)C1=O,,inactive: -7.94%
Cc1ccc2c(c1)C1CN(C)CCC1N2C(=O)COc1ccc(N(C)C(=O)c2ccccc2)cc1 (stereo not given),,inactive: -9.64%
Cc1nc(-c2cccc(F)c2)sc1CCNC(=O)c1c(F)cccc1Cl,,inactive: 7.1%

SMILES,Potency,"activity change, negative = inhibition"
S=C(NCCc1ccccc1)N1CCC2CC1c1c(Cl)cccc12 (stereo not given),"inconclusive: 28.2 µM [inhibitor, single point]",
Clc1ccccc1N1CCN(Cc2c[nH]c3ccccc23)CC1,"inconclusive: 28.2 µM [inhibitor, single point]",
Cc1cc(C2(c3ccc(O)c(C)c3)C(=O)Nc3ccccc32)ccc1O,"inconclusive: 14.1 µM [inhibitor, single point]",
CN(CC(=O)Nc1ccc(Cl)c(C(F)(F)F)c1)C(=O)C1(c2ccccc2)CC1,,inactive: 4.87%
COc1cccc(-n2sc3c(c2=S)-c2cc(OC)ccc2NC3(C)C)c1,"inconclusive: 17.8 µM [inhibitor, partial curve, poor fit]",
CCc1c(C)nc2ncnn2c1NCCc1ccc(OC)cc1,"inconclusive: 1.58 µM [inhibitor, full curve, poor fit]",
O=[N+]([O-])c1cccc(-c2csc(Nc3ccccc3)n2)c1,"inconclusive: 28.2 µM [inhibitor, single point]",
CN1CCN(c2ncnc3c2ncn3[C@H]2CN(Cc3ccc(-c4ccccc4)cc3)C[C@@H](CO)O2)CC1,"inconclusive: 28.2 µM [inhibitor, single point]",
Cc1ccc(NC(=S)NCCc2c[nH]c3ccccc23)c(C)c1,"inconclusive: 11.2 µM [inhibitor, single point]",
COc1ccc(-c2csc(-n3ncc(C(=O)O)c3C(F)(F)F)n2)cc1,,inactive: -15.1%
Cc1ccc(C(=O)NNC(=O)c2ccc(NC(=O)C(C)(C)C)cc2)cc1,"inconclusive: 28.2 µM [inhibitor, partial curve, poor fit]",
Cc1cccc(COCC(CC(C)C)N2CCN(C(=O)c3ccc(C(C)(C)C)cc3)CCC2=O)c1 (stereo not given),"inconclusive: 31.6 µM [inhibitor, partial curve, poor fit]",
COc1cc(C(=S)N2CCOCC2)ccc1OS(=O)(=O)c1ccc(NC(C)=O)cc1,"inconclusive: 2.51 µM [inhibitor, full curve]",
CC(=O)Nc1ccc2c(c1)nc(CCN1CCN(c3ccccn3)CC1)n2C,,inactive: -7.93%
C/C(=N\NC(=O)Nc1ccccc1)c1ccc2ccccc2c1,,inactive: 1.19%
COc1cc(/C=C/c2nc(N)nc(-c3ccccc3O)n2)cc(OC)c1OC,"inconclusive: 12.6 µM [inhibitor, single point]",
COc1ccc(-c2cn[nH]c2-c2ccc(OCc3ccccc3)cc2O)cc1,"inconclusive: 28.2 µM [inhibitor, single point]",
CC(=NNC(=S)SCc1ccccc1)c1ccccn1,"inconclusive: 1.78 µM [inhibitor, full curve, poor fit]",
CC(C)(C)C1CCC(=NNc2ccc(S(N)(=O)=O)cc2[N+](=O)[O-])CC1 (stereo not given),"inconclusive: 10 µM [inhibitor, single point]",
CC(C)NC(=O)CC(c1ccccc1)c1cc(Br)ccc1O (stereo not given),"inconclusive: 14.1 µM [inhibitor, single point]",
COCC(=O)NNC(=O)c1ccccc1OC,,inactive: 6.73%
Cc1cnc(NC(=O)c2cc3c(s2)CCCC3)s1,"inconclusive: 28.2 µM [inhibitor, single point]",
